Assay results as given in the antibiotic and cytotoxicity screens of Wong et al. (2023).
Some of the results follow.

Tests used:
HSkMC = human skeletal muscle cells; test: cytotoxicity call (relative viability < 0.9); conditions: 10 µM
HepG2 = test: cytotoxicity call (relative viability < 0.9); conditions: 10 µM
S. aureus RN4220 = test: growth inhibition call (relative growth <= 0.2); conditions: 50 µM

SMILES | cytotoxicity call (HSkMC) | cytotoxicity call (HepG2) | growth inhibition call (S. aureus RN4220)
Cc1noc(C)c1S(=O)(=O)Nc1ccc2c(c1)C(=O)N([C@H](C)CO)C[C@@H](C)[C@@H](CN(C)S(=O)(=O)c1ccc(Cl)cc1)O2 | inactive | inactive | inactive
C[C@H](C(=O)O)N1CCCC1=O | inactive | inactive | inactive
C[C@@H]1CN([C@H](C)CO)C(=O)c2cc(NS(=O)(=O)c3ccccc3)ccc2O[C@H]1CN(C)S(=O)(=O)c1cn(C)cn1 | inactive | inactive | inactive
C[C@@H](O)CO | inactive | inactive | inactive
Cc1ccc(S(=O)(=O)N(C)C[C@@H]2Oc3cc(C#Cc4ccncc4)ccc3S(=O)(=O)N([C@H](C)CO)C[C@@H]2C)cc1 | inactive | active | inactive
COc1ccc(NC(=O)Nc2ccc3c(c2)C(=O)N([C@@H](C)CO)C[C@H](C)[C@H](CN(C)S(=O)(=O)c2ccc(OC)cc2)OCCCC[C@@H](C)O3)cc1 | inactive | inactive | inactive
C[C@@H]1CN([C@H](C)CO)S(=O)(=O)c2ccc(C#CCN(C)C)cc2O[C@H]1CN(C)Cc1ccc2c(c1)OCO2 | inactive | inactive | inactive
Cc1cc2c(cc1C)N[C@@H](CC(N)=O)C(=O)N2 | inactive | inactive | inactive
O=C(NCCO)c1ccc(C(=O)NCCO)cc1 | inactive | inactive | inactive
C[C@@H]1CN([C@H](C)CO)C(=O)c2cc(NC(=O)Nc3ccc(C(F)(F)F)cc3)ccc2O[C@@H]1CN(C)S(=O)(=O)c1ccc(F)cc1 | active | active | inactive
C[C@H](CO)N1C[C@H](C)[C@H](CN(C)S(=O)(=O)c2ccc(Cl)cc2)Oc2ccc(N(C)C)cc2CC1=O | inactive | active | inactive
O=C(C[C@@H]1CC[C@@H]2[C@H](COC[C@@H](O)CN2C(=O)Nc2cccc(F)c2)O1)NCCCN1CCOCC1 | inactive | inactive | inactive
C[C@H]1CN([C@@H](C)CO)C(=O)CCCn2nncc2CO[C@H]1CN(C)S(=O)(=O)c1ccc(Oc2ccccc2)cc1 | inactive | inactive | inactive
COc1ccc(S(=O)(=O)N(C)C[C@H]2Oc3ccc(NC(=O)Nc4c(C)noc4C)cc3CC(=O)N([C@H](C)CO)C[C@H]2C)cc1 | inactive | inactive | inactive
O=C(O)c1ccc2nncn2c1 | inactive | inactive | inactive
C[C@@H]1CCCCO[C@@H](CN(C)Cc2ccc(Cl)c(Cl)c2)[C@H](C)CN([C@@H](C)CO)C(=O)c2cc(NC(=O)Nc3ccc(C(F)(F)F)cc3)ccc2O1 | inactive | active | inactive
O=C1O[C@@H](c2ccccc2)[C@@H](c2ccccc2)N2[C@@H](c3ccccc3OCCO)[C@]3(C(=O)Nc4ccc(C#CC5=CCCCC5)cc43)[C@@H](C(=O)N3CCCCCCC3)[C@H]12 | inactive | active | inactive
CN1C(=O)c2cc(NC(=O)c3ccc(F)c(F)c3)ccc2OC[C@@H]2O[C@H](CC(=O)N3CCOCC3)CC[C@H]21 | inactive | inactive | inactive
CNC(=O)C[C@H]1CC[C@H]2[C@H](COc3ccc(NC(=O)c4ccc(C(F)(F)F)cc4)cc3C(=O)N2C)O1 | inactive | inactive | inactive
CN1C(=O)c2cc(NC(=O)c3cccs3)ccc2OC[C@H]2O[C@H](CC(=O)NCC(F)(F)F)CC[C@H]21 | inactive | inactive | inactive
CNC(=O)C[C@H]1CC[C@@H]2[C@H](COC[C@@H](O)CN2C(=O)Nc2cccc(OC)c2)O1 | inactive | inactive | inactive
Cc1[nH]c(/C=C2\C(=O)Nc3ccc(S(=O)(=O)Cc4c(Cl)cccc4Cl)cc32)c(C)c1C(=O)N1CCC[C@@H]1CN1CCCC1 | active | active | inactive
CO[C@H]1CN(C)C(=O)c2cc(NS(C)(=O)=O)ccc2OC[C@@H](C)N(C(=O)C2CCCCC2)C[C@@H]1C | inactive | inactive | inactive
COc1ccc(S(=O)(=O)Nc2cccc3c2O[C@H](CN(C)S(=O)(=O)c2cn(C)cn2)[C@@H](C)CN([C@H](C)CO)C3=O)cc1 | inactive | inactive | inactive
C[C@@H]1CN([C@@H](C)CO)C(=O)c2cccc(NC(=O)CCCCCC(=O)Nc3ccccc3N)c2O[C@@H]1CN(C)Cc1ccc(Cl)c(Cl)c1 | inactive | inactive | inactive
CCn1cc(C(=O)O)c(=O)c2cc(F)c(N3CCNCC3)nc21 | inactive | inactive | inactive
C[C@@H]1CCCCO[C@@H](CN(C)C(=O)Nc2ccc3c(c2)OCO3)[C@H](C)CN([C@H](C)CO)C(=O)c2cc(NC(=O)Nc3ccc(F)cc3)ccc2O1 | inactive | inactive | inactive
C[C@@H]1CCCCO[C@@H](CN(C)S(=O)(=O)c2ccc(F)cc2)[C@@H](C)CN([C@@H](C)CO)C(=O)c2cc(NC(=O)Nc3ccc(C(F)(F)F)cc3)ccc2O1 | inactive | active | inactive
COC(=O)[C@H]1CCC(=O)N1 | inactive | inactive | inactive
